According to the supplement of paper PMC10369915:
The other results are listed elsewhere or left out. Cut-off read from the data, not from the text of the source: active = 3.2 or more and inactive = the rest. The signal is at background level for most entries.

Biological target: SHP2 C-SH2 domain E139D
Experiment: enrichment score (SH2-bound / input frequency) (ratio); bacterial display of known human phosphotyrosine sites (pTyr-Var adds point mutants) read by sequencing; higher = stronger binding; tyrosines were phosphorylated by kinases first
Conditions: peptide library: pTyr-Var
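Note: displayed peptides selected on beads carrying the immobilized SH2 domain, with library peptides lacking any tyrosine serving as negative controls.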

Row | Binder | enrichment score
1 | RRYLYYYSYLL [PTEN_Y177_V175L] | inactive: 0.299
2 | RRFVFYFSFLL [PTEN_Y177_YF] | inactive: 0.355
3 | NHYKICNLCAE [PTEN_Y68_Y68C] | active: 3.43
4 | RHFVFYFSFLL [PTEN_Y177_R173H_YF] | inactive: 0.996
5 | RLEGVYRNNID [PTEN_Y46] | inactive: 0.707
6 | QRRFVYFFSFL [PTEN_Y176_YF] | inactive: 1.05
7 | RPFVFYFSFLL [PTEN_Y177_R173P_YF] | inactive: 1.28
8 | GKANRYFSPNF [PTEN_Y336_D331G] | inactive: 0.866
9 | QRCFVYFFSFL [PTEN_Y176_R173C_YF] | inactive: 2.25
10 | PYVYYYSYLLK [PTEN_Y178_R173P] | inactive: 0.86
11 | TLNFCYQQVKS [PTK2_Y148_F147C] | inactive: 0.941
12 | RRNVYYYSYLL [PTEN_Y177_Y174N] | inactive: 0.293
13 | VFFFSYLLKNH [PTEN_Y180_YF] | inactive: 1.5
14 | DLDLTSIYPNI [PTEN_Y27_Y27S] | inactive: 0.649
15 | QRHFVYFFSFL [PTEN_Y176_R173H_YF] | inactive: 1.86
16 | DLDLTYIFPNI [PTEN_Y27_YF] | inactive: 1.2
17 | LYYYSYLLKNH [PTEN_Y180_V175L] | inactive: 1.27
18 | VLICAYLLHRG [PTEN_Y138_M134L] | inactive: 2.3
19 | QRRNVYYYSYL [PTEN_Y176_Y174N] | inactive: 0.541

Biological target: SHP2 C-SH2 domain wild-type
Experiment: as above
Conditions: peptide library: pTyr-Var

Row | Binder | enrichment score
20 | RRYLYYYSYLL [PTEN_Y177_V175L] | inactive: 0.209
21 | RRFVFYFSFLL [PTEN_Y177_YF] | inactive: 0.239
22 | NHYKICNLCAE [PTEN_Y68_Y68C] | active: 3.23
23 | RHFVFYFSFLL [PTEN_Y177_R173H_YF] | inactive: 0.958
24 | RLEGVYRNNID [PTEN_Y46] | inactive: 1.25
25 | QRRFVYFFSFL [PTEN_Y176_YF] | inactive: 1.17
26 | RPFVFYFSFLL [PTEN_Y177_R173P_YF] | inactive: 1.57
27 | GKANRYFSPNF [PTEN_Y336_D331G] | inactive: 0.777
28 | QRCFVYFFSFL [PTEN_Y176_R173C_YF] | inactive: 2.2
29 | PYVYYYSYLLK [PTEN_Y178_R173P] | inactive: 1.03
30 | TLNFCYQQVKS [PTK2_Y148_F147C] | inactive: 1.24
31 | RRNVYYYSYLL [PTEN_Y177_Y174N] | inactive: 0.22
32 | VFFFSYLLKNH [PTEN_Y180_YF] | inactive: 2.04
33 | DLDLTSIYPNI [PTEN_Y27_Y27S] | inactive: 0.546
34 | QRHFVYFFSFL [PTEN_Y176_R173H_YF] | inactive: 2.35
35 | DLDLTYIFPNI [PTEN_Y27_YF] | inactive: 1.12
36 | LYYYSYLLKNH [PTEN_Y180_V175L] | inactive: 1.63
37 | VLICAYLLHRG [PTEN_Y138_M134L] | inactive: 2.41
38 | QRRNVYYYSYL [PTEN_Y176_Y174N] | inactive: 0.564

Biological target: SHP2 N-SH2 domain L43F
Experiment: as above
Conditions: peptide library: pTyr-Var

Row | Binder | enrichment score
39 | RRYLYYYSYLL [PTEN_Y177_V175L] | inactive: 0.379
40 | RRFVFYFSFLL [PTEN_Y177_YF] | inactive: 0.254
41 | NHYKICNLCAE [PTEN_Y68_Y68C] | active: 3.72
42 | RHFVFYFSFLL [PTEN_Y177_R173H_YF] | inactive: 1.46
43 | RLEGVYRNNID [PTEN_Y46] | inactive: 0.99
44 | QRRFVYFFSFL [PTEN_Y176_YF] | inactive: 0.831
45 | RPFVFYFSFLL [PTEN_Y177_R173P_YF] | inactive: 0.916
46 | GKANRYFSPNF [PTEN_Y336_D331G] | inactive: 1.03
47 | QRCFVYFFSFL [PTEN_Y176_R173C_YF] | inactive: 2.42
48 | PYVYYYSYLLK [PTEN_Y178_R173P] | inactive: 0.945
49 | TLNFCYQQVKS [PTK2_Y148_F147C] | inactive: 0.966
50 | RRNVYYYSYLL [PTEN_Y177_Y174N] | inactive: 0.311
51 | VFFFSYLLKNH [PTEN_Y180_YF] | inactive: 1.86
52 | DLDLTSIYPNI [PTEN_Y27_Y27S] | inactive: 0.778
53 | QRHFVYFFSFL [PTEN_Y176_R173H_YF] | inactive: 1.52
54 | DLDLTYIFPNI [PTEN_Y27_YF] | inactive: 0.869
55 | LYYYSYLLKNH [PTEN_Y180_V175L] | inactive: 2.21
56 | VLICAYLLHRG [PTEN_Y138_M134L] | inactive: 2.09
57 | QRRNVYYYSYL [PTEN_Y176_Y174N] | inactive: 0.753

Biological target: SHP2 N-SH2 domain T42A
Experiment: as above
Conditions: peptide library: pTyr-Var

Row | Binder | enrichment score
58 | RRYLYYYSYLL [PTEN_Y177_V175L] | inactive: 0.293
59 | RRFVFYFSFLL [PTEN_Y177_YF] | inactive: 0.286
60 | NHYKICNLCAE [PTEN_Y68_Y68C] | active: 3.41
61 | RHFVFYFSFLL [PTEN_Y177_R173H_YF] | inactive: 1.09
62 | RLEGVYRNNID [PTEN_Y46] | inactive: 0.78
63 | QRRFVYFFSFL [PTEN_Y176_YF] | inactive: 0.851
64 | RPFVFYFSFLL [PTEN_Y177_R173P_YF] | inactive: 1.24
65 | GKANRYFSPNF [PTEN_Y336_D331G] | inactive: 0.877
66 | QRCFVYFFSFL [PTEN_Y176_R173C_YF] | inactive: 2.36
67 | PYVYYYSYLLK [PTEN_Y178_R173P] | inactive: 0.924
68 | TLNFCYQQVKS [PTK2_Y148_F147C] | inactive: 0.892
69 | RRNVYYYSYLL [PTEN_Y177_Y174N] | inactive: 0.229
70 | VFFFSYLLKNH [PTEN_Y180_YF] | inactive: 1.63
71 | DLDLTSIYPNI [PTEN_Y27_Y27S] | inactive: 0.583
72 | QRHFVYFFSFL [PTEN_Y176_R173H_YF] | inactive: 1.81
73 | DLDLTYIFPNI [PTEN_Y27_YF] | inactive: 0.859
74 | LYYYSYLLKNH [PTEN_Y180_V175L] | inactive: 2.19
75 | VLICAYLLHRG [PTEN_Y138_M134L] | inactive: 1.87
76 | QRRNVYYYSYL [PTEN_Y176_Y174N] | inactive: 0.555

Biological target: SHP2 N-SH2 domain T52S
Experiment: as above
Conditions: peptide library: pTyr-Var

Row | Binder | enrichment score
77 | RRYLYYYSYLL [PTEN_Y177_V175L] | inactive: 0.607
78 | RRFVFYFSFLL [PTEN_Y177_YF] | inactive: 0.32
79 | NHYKICNLCAE [PTEN_Y68_Y68C] | active: 3.67
80 | RHFVFYFSFLL [PTEN_Y177_R173H_YF] | inactive: 1.2
81 | RLEGVYRNNID [PTEN_Y46] | inactive: 0.832
82 | QRRFVYFFSFL [PTEN_Y176_YF] | inactive: 1.16
83 | RPFVFYFSFLL [PTEN_Y177_R173P_YF] | inactive: 0.941
84 | GKANRYFSPNF [PTEN_Y336_D331G] | inactive: 1.02
85 | QRCFVYFFSFL [PTEN_Y176_R173C_YF] | inactive: 2.63
86 | PYVYYYSYLLK [PTEN_Y178_R173P] | inactive: 1.09
87 | TLNFCYQQVKS [PTK2_Y148_F147C] | inactive: 0.83
88 | RRNVYYYSYLL [PTEN_Y177_Y174N] | inactive: 0.208
89 | VFFFSYLLKNH [PTEN_Y180_YF] | inactive: 1.7
90 | DLDLTSIYPNI [PTEN_Y27_Y27S] | inactive: 0.766
91 | QRHFVYFFSFL [PTEN_Y176_R173H_YF] | inactive: 2.34
92 | DLDLTYIFPNI [PTEN_Y27_YF] | inactive: 1.04
93 | LYYYSYLLKNH [PTEN_Y180_V175L] | inactive: 2.21
94 | VLICAYLLHRG [PTEN_Y138_M134L] | inactive: 1.91
95 | QRRNVYYYSYL [PTEN_Y176_Y174N] | inactive: 0.714

Biological target: SHP2 N-SH2 domain wild-type
Experiment: as above
Conditions: peptide library: pTyr-Var

Row | Binder | enrichment score
96 | RRYLYYYSYLL [PTEN_Y177_V175L] | inactive: 0.537
97 | RRFVFYFSFLL [PTEN_Y177_YF] | inactive: 0.389
98 | NHYKICNLCAE [PTEN_Y68_Y68C] | inactive: 3.09
99 | RHFVFYFSFLL [PTEN_Y177_R173H_YF] | inactive: 0.807
100 | RLEGVYRNNID [PTEN_Y46] | inactive: 0.962
101 | QRRFVYFFSFL [PTEN_Y176_YF] | inactive: 0.706
102 | RPFVFYFSFLL [PTEN_Y177_R173P_YF] | inactive: 1.36
103 | GKANRYFSPNF [PTEN_Y336_D331G] | inactive: 0.738
104 | QRCFVYFFSFL [PTEN_Y176_R173C_YF] | inactive: 2.39
105 | PYVYYYSYLLK [PTEN_Y178_R173P] | inactive: 0.796
106 | TLNFCYQQVKS [PTK2_Y148_F147C] | inactive: 1.16
107 | RRNVYYYSYLL [PTEN_Y177_Y174N] | inactive: 0.205
108 | VFFFSYLLKNH [PTEN_Y180_YF] | inactive: 1.55
109 | DLDLTSIYPNI [PTEN_Y27_Y27S] | inactive: 0.661
110 | QRHFVYFFSFL [PTEN_Y176_R173H_YF] | inactive: 2.39
111 | DLDLTYIFPNI [PTEN_Y27_YF] | inactive: 1.21
112 | LYYYSYLLKNH [PTEN_Y180_V175L] | inactive: 1.57
113 | VLICAYLLHRG [PTEN_Y138_M134L] | inactive: 2.5
114 | QRRNVYYYSYL [PTEN_Y176_Y174N] | inactive: 0.5
